# Measurements as given in PubChem BioAssay AID485344 (National Center for Advancing Translational Sciences (NCATS), 2010).
# The campaign covered roughly 340,000 compounds. About 6,900 (2%) were called active. Rule as the data show it: active = inhibition above about 30%; inactive = below that, where a call was filed. This is a selection; strong and weak results do not stand in their true shares. The source gives no active or inactive call for entries shown without one.
# Target: D(2) dopamine receptor (Homo sapiens) (UniProt P14416)
# Assay: HTS Assay for Allosteric Antagonists of the Human D2 Dopamine Receptor: Primary Screen for Antagonists; also: 0% is about no effect
# Conditions: HEK293 TREx D2 cells, calcium flux, dopamine EC80; at 10 µM; stronger effect = higher value
# How it was run: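 Antagonism is scored as inhibition of an EC80 dopamine-evoked calcium signal in a force-coupled, tetracycline-inducible HEK293 T-REx D2 line, with compound present 180 s before agonist.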
# UniProt P14416, sequence (P14416 whole entry, looked up): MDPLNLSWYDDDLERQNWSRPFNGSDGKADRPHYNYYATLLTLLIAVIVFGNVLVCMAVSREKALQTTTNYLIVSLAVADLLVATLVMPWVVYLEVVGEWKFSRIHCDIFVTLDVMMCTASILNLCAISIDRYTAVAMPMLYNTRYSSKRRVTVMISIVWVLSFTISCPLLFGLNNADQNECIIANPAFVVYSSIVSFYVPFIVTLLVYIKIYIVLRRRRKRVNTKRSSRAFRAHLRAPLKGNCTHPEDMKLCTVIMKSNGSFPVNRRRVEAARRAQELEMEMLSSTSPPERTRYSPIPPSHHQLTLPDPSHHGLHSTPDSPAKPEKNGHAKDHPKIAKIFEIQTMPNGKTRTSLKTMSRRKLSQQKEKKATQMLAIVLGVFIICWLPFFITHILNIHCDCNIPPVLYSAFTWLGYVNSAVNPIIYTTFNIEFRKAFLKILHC
row,SMILES,inhibition
1,COc1ccc(S(=O)(=O)c2c(C)c(NS(=O)(=O)c3ccccc3)cc(C)c2O)cc1,8.25%
2,COc1ccc(Cn2cc(C(=O)c3ccc(C)cc3)c(=O)c3cc(OC)c(OC)cc32)cc1,-1.47%
3,O=C(CCC(=O)N1CCOc2ccc(Cl)cc21)NCc1ccccc1,active: 36.7%
4,Cc1ccccc1Nc1c(-c2ccc(Cl)s2)nc2cccc(C)n12,14.7%
5,O=[N+]([O-])c1ccc(/C=N/NC(=S)Nc2ccc(Cl)cc2Cl)s1,active: 45.4%
6,COc1cc(C(c2c(C)[nH][nH]c2=O)c2c(C)[nH][nH]c2=O)ccc1OC(=O)c1cccc(C)c1,16.7%
7,O=C(c1ccc2c(c1)CCCC2)N1CCN(c2nc3c(F)cccc3s2)CC1,-20.3%
8,CCOC(=O)C1CCCCN1S(=O)(=O)c1csc(C(N)=O)c1 (stereo not given),12.2%
9,CCn1cc(C(=O)NCc2ccccc2)c(=O)c2cc(S(=O)(=O)N3CCc4ccccc4C3)ccc21,12.4%
10,O=c1c(-c2ccc(Cl)cc2)c(C(F)(F)F)oc2c(CN3CCCCC3)c(O)ccc12,-12.2%
11,CCCC(CCC)C(=O)Nc1cc(-c2cn3cccnc3n2)ccc1OC,0.774%
12,CCc1ccc(N2C(=O)CSC23C(=O)N(Cc2ccc(C)cc2)c2ccccc23)cc1 (stereo not given),5.64%
13,Cc1ccc(-c2cc(NC(=O)COc3ccc(Cl)cc3C)on2)cc1,-7.55%
14,CCOc1ccc(CCNC(=O)c2cc3c(s2)-c2ccccc2OC3)cc1OCC,-20.9%
15,O=C(NCc1ccc(Cl)cc1)C1CCN(S(=O)(=O)Cc2ccccc2)CC1,6.87%
16,COc1ccc(-c2cc(C(F)(F)F)nc(SCC(=O)N3CCC(C)CC3)n2)cc1,4.88%
17,COc1cccc(OC)c1OCC(O)CN1CCN(c2ccccc2)CC1 (stereo not given),active: 115%
18,Cc1ccc(CNC(=O)C2CCN(S(=O)(=O)c3cc(-c4noc(C)n4)ccc3C)CC2)cc1,9.51%
19,Cc1c(Cl)cccc1-n1nc(C)c2c(C(=O)NCc3ccccc3)cc(C3CC3)nc21,-6.53%
20,Cc1nc2c(-c3ccccc3)c(C)nn2c(C)c1CCC(=O)NCc1ccc(F)cc1,8.11%
21,Cn1c(=O)oc2cc(S(=O)(=O)Nc3ccccc3O)ccc21,-1.15%
22,CN(Cc1ccccc1)C(=O)CN1CCN(C(c2ccccc2)c2ccccc2)CC1,active: 50.6%
23,CC(CNC(=O)Cc1ccc(NC(=O)N2CCSc3ncccc32)cc1)c1ccccc1 (stereo not given),6.61%
24,COC(=O)c1scc(-c2ccc(C)cc2)c1S(=O)(=O)Nc1ccc(N(C)C)cc1,-3.89%

row,SMILES,inhibition
1,COc1ccc(-c2cn3c(n2)sc2cc(C(=O)Nc4cccc(OC)c4)ccc23)cc1,13.1%
2,Cc1ccccc1NCc1cccn1-c1nnc(N2CCC(C)CC2)s1,6.91%
3,CCOC(=O)C1=C(CN2CCN(c3ccccc3F)CC2)NC(=O)NC1c1ccc(Cl)cc1 (stereo not given),7.73%
4,O=C(NC1CC2CCC(C1)N2Cc1ccccc1)c1cccc(F)c1 (stereo not given),active: 71.5%
5,Cc1ccc(-n2c3c(c(=O)[nH]c2=O)C(NC(=O)c2ccccc2C)(C(F)(F)F)C(=O)N3)cc1 (stereo not given),-4.11%
6,COc1cccc(/C=C/c2onc(C)c2S(=O)(=O)N2CCC(C(=O)N3CCC(C)CC3)CC2)c1,2.05%
7,COc1ccccc1N1CCN(C(=O)CSc2n[nH]c(-c3ccccc3)n2)CC1,1.69%
8,Cc1cc2ccccc2n1-c1ccc(C(=O)N2CCC(C(=O)NCc3ccccc3Cl)CC2)s1,-2.34%
9,CN1CCc2c(sc(NC(=O)c3ccc(C(=O)c4ccccc4)cc3)c2C(N)=O)C1,active: 37.1%
10,O=C(/C=C\c1ccc2c(c1)OCO2)NC1CC(=O)N(c2cccc(F)c2)C1 (stereo not given),-7.65%
11,O=C(Nc1c(-c2ccc(F)cc2)nc2ccccn12)c1ccccc1F,-2.51%
12,Cc1cccc(CNC(=O)c2ccc(NC(=O)N3CC(C)Sc4ccccc43)cc2)c1 (stereo not given),2.63%
13,Nc1c(C(=O)c2ccc(F)cc2)sc(Nc2ccccc2F)c1S(=O)(=O)c1ccc(Br)cc1,0.633%
14,Cc1ccc(S(=O)(=O)N2CCCCC2)cc1C(=O)N(C)CC(=O)Nc1cccc(F)c1,active: 31.6%
15,Cc1ccc(NC(=O)Cn2c(=O)n(-c3ccccc3)c(=O)c3ccc(C(=O)NCc4ccc5c(c4)OCO5)cc32)c(C)c1,-11.3%
16,CCOc1ccc(S(=O)(=O)N(CC(=O)Nc2ccc3c(c2)OCO3)c2ccccc2)cc1,-5.43%
17,CC(C)CN(CCNC(=O)CN1C(=O)CSc2ccc(S(=O)(=O)N3CCOCC3)cc21)CC(C)C,-27.4%
18,CCOc1ccc(C(=O)c2cn(CC(=O)Nc3ccc4c(c3)OCO4)c3ccc(OCC)cc3c2=O)cc1,-1.61%
19,COc1ccc(-n2c(=O)c3c(c4cc(OC)ccc4n3C)n(Cc3cc(C)ccc3C)c2=O)cc1,5.45%
20,COC(=O)c1cccnc1-n1c(=O)c2cccnc2n(CC(=O)Nc2c(C)cc(C)cc2C)c1=O,6.74%
21,O=C(Cn1ncn2nc(-c3cccs3)cc2c1=O)NCc1cccc(Br)c1,8.31%
22,Cc1ccc(Cl)cc1S(=O)(=O)N1CCC(C(=O)NC2CCN(Cc3ccccc3)CC2)CC1,active: 31.1%
23,Cc1ccc(NC(=O)CN2C(=O)COc3ccc(S(=O)(=O)N4CCCCC4)cc32)cc1N(C)C,-1.84%
24,COc1ccc(CN(Cc2ccco2)c2cnc(S(C)(=O)=O)nc2C(=O)Nc2ccc(F)cc2)cc1,-1.41%

row,SMILES,inhibition
1,COc1ccc(OC)c(-c2csc(-c3c(N)c(C(=O)c4ccccc4)n4ccccc34)n2)c1,-0.867%
2,CC(=O)c1ccc(Oc2nc(C)nc3c2oc2ccccc23)cc1,-9.88%
3,CCN(CC)c1ccc2cc(-c3nc(-c4ccc(OC)cc4)cs3)c(=O)oc2c1,active: 71%
4,CCOC(=O)c1sc(/N=C/c2c(O)ccc3ccccc23)cc1C,active: 31.4%
5,COc1ccc(N2CCN(S(=O)(=O)c3c(C)[nH]c(=O)[nH]c3=O)CC2)cc1,0.617%
6,COc1ccc(CCNC(=O)C(=O)Nc2ccc(C)cc2)cc1OC,-10.4%
7,CCN(C(=O)c1cc2cc3ccc(OC)cc3nc2o1)c1cccc(C)c1,-18.4%
8,Cc1ccc(C)c(NC(=O)CSc2nc(-c3ccccc3)cc(=O)[nH]2)c1,-1.19%
9,CCCCn1c(=O)c2oc3ccccc3c2n(CC(=O)Nc2cccc(Cl)c2C)c1=O,6.08%
10,CCc1ccccc1NC(=O)C1CCN(S(=O)(=O)c2ccc3[nH]c(=O)ccc3c2)CC1,-2.4%
11,CCc1cccc(OCC(=O)Nc2ccc(C)c(S(=O)(=O)N3CCCCCC3)c2)c1,active: 31.4%
12,COc1ccc(CNC(=O)c2nc(Cn3nc(C)c(Br)c3C)no2)cc1OC,5.61%
13,Cc1noc(C)c1S(=O)(=O)N1CCC(C(=O)Nc2ccc(Br)cc2)CC1,-9.26%
14,COc1ccc(Cc2nc3ccc(C(=O)NCc4ccc(OC)cc4OC)cc3o2)cc1,25.8%
15,COc1cc(NC(=O)c2sc3nc4n(c(=O)c3c2C)CCCCC4)cc(OC)c1OC,-9.65%
16,CC(C)c1ccc(NC(=O)c2ccc(F)c(S(=O)(=O)N3CCCCCC3)c2)cc1,7.44%
17,COc1ccc(S(=O)(=O)NCCc2csc3nc(-c4ccc(OC)c(OC)c4)nn23)cc1C,-5%
18,O=C(NC1CC1)C1CCN(S(=O)(=O)c2ccc(Cl)cc2)CC1,active: 32%
19,O=C1CCSc2ccc(S(=O)(=O)Nc3ccc(Cl)c(C(F)(F)F)c3)cc2N1,-3.42%
20,O=C(Nc1cccc(Cl)c1)NC1CCN(C2CCCCC2)C1 (stereo not given),active: 84.9%
21,CC1CCCN(S(=O)(=O)c2ccc3[nH]c(=O)cc(C(=O)NCCc4ccc(Cl)cc4)c3c2)C1 (stereo not given),11.6%
22,COc1ccc(C)cc1NC(=O)CSc1nc2ccccc2nc1N1CCOCC1,-14.3%
23,O=C(COc1ccc(Cl)cc1)Nc1nnc2n1CCS2,-3.59%
24,Cc1c(CNC2CCCCCC2)c(C(=O)O)c(C)n1Cc1ccc(F)cc1Cl,-1.15%

row,SMILES,inhibition
1,CCOCCCN(C(=O)Nc1ccc(Cl)cc1)C1CCN(C(C)=O)CC1,3.43%
2,COc1cc(OC)cc(-c2nc(-c3cccc(C)c3)no2)c1,10.5%
3,COc1ccc(NC(=O)CN(C)C(=O)c2oc3ccccc3c2C)cc1,active: 31%
4,COc1ccc(N2CCN(C(CNC(=O)C(=O)NCCc3ccccc3)c3cccnc3)CC2)cc1 (stereo not given),13.3%
5,COc1cccc(-c2nc(NC(C)C)c3ccccc3n2)c1O,active: 32.5%
6,COc1ccccc1NC(=O)CN(C)S(=O)(=O)c1ccc2c(c1)c(=O)n(C)c(=O)n2C,-14.9%
7,COc1ccc(C)cc1NC(=O)NCc1cccn1Cc1ccccc1,-26.8%
8,Cc1ccc(CCNC(=O)NCc2noc3ccccc23)cc1,5.08%
9,O=C(NCc1ccccc1)c1ccc2nc(CCc3ccccc3)oc2c1,-6.66%
10,Cc1ccccc1CN1c2ccccc2S(=O)(=O)c2ccccc21,7.43%
11,CN(CCOC(=O)c1cccc(Br)c1)C(C)(C)C,active: 31.1%
12,O=C(Oc1ccccc1F)c1ccc2c(=O)n3c(nc2c1)CCC3,active: 31.8%
13,CC(=O)N1CCc2cc(S(=O)(=O)NC(Cc3ccccc3)C(=O)Nc3cccc(C)c3)ccc21 (stereo not given),-22.9%
14,O=C(Cn1ncc2c([nH]c3ccccc32)c1=O)Nc1cccc(C(F)(F)F)c1,-9.08%
15,Oc1c(C(c2ccc(F)cc2)N2CCOCC2)sc2nc(-c3ccco3)nn12 (stereo not given),6.52%
16,Cc1ccc(CNCc2ccccc2)s1,-10.2%
17,COc1ccc(CCNc2nccn(-c3ccc(C)c(C)c3)c2=O)cc1OC,6.69%
18,Cc1cc(C)cc(N2CC(c3nc(-c4cccc(Cl)c4)no3)CC2=O)c1 (stereo not given),7.12%
19,CC(C)CCNC(=O)c1c2c(nc3ccccc13)C(=O)N(C1CCCCC1)C2,-1.41%
20,CC(=O)N1CCOc2cc(S(=O)(=O)Nc3c(C)cccc3C(C)C)c(Cl)cc21,11.8%
21,O=C(Nc1ccccc1F)C1CCN(S(=O)(=O)c2ccc3c(c2)CCCN3C(=O)C2CCC2)CC1,26.1%
22,CCCCN(C)C(=O)c1ccc2c(c1)N(Cc1ccc(F)cc1)C(=O)c1ccccc1S2(=O)=O,-3.24%
23,Cc1ccc(-c2nc(CS(=O)CC(=O)N3CCN(c4ccc(F)cc4)CC3)c(C)o2)cc1 (stereo not given),2.8%
